In PubChem BioAssay AID504845 (National Center for Advancing Translational Sciences (NCATS), 2011):
In all, about 390,000 compounds went through this assay and about 150 (0.038%) were called active. This list was built around the results that the source calls inconclusive (neither active nor inactive); the mix of calls is not that of the screen. Calls follow the shape of the dose curve; as a rule, active = well fitted inhibition curve with a large enough effect; inconclusive = small, poorly fitted or top-dose-only effect; inactive = no such curve, though single readings can be large or run the other way. Potencies beside an inconclusive call are fits to weak or partial responses and may not hold up.

target: Regulator of G-protein signaling 4 (Homo sapiens) (UniProt P49798); assay: Inhibitors of Regulator of G Protein Signaling (RGS) 4: qHTS; settings: Transcreener GDP fluorescence polarization, RGS4-accelerated GTP hydrolysis; series mostly up to 114 µM; also: nearly all actives have a fitted effect of over 75% in size
Outline: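 MLSMR compounds (23 nl, pin-transferred) preincubated 10 min at room temperature with a 500nM (2x) first reagent, then RGS4 at 900nM (2x) plus Transcreener GDP mix added; fluorescence polarization (620/688 nm) read before and after 90 min at 30 °C.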
Potency is read from the fitted curve at half-maximal effect; tags tell the direction and shape of the fitted curve.

UniProt P49798, sequence (P49798 whole entry, looked up): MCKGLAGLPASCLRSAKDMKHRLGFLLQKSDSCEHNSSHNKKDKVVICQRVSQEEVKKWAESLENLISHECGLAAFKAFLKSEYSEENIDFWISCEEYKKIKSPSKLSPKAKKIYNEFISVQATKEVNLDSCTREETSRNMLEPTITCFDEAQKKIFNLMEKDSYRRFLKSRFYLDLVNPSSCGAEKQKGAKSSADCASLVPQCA

Compound | Potency
CCCCCOC(=O)CC(C(=O)OCCCCC)N1CCCCC1 (stereo unspecified) | inactive
CC1COc2ccccc2N1S(=O)(=O)c1ccccc1 (stereo unspecified) | inconclusive: 100 µM [inhibitor, single point]
COc1ccc2c(c1)C(C)CC(C)(C)N2C(=O)Nc1ccccc1 (stereo unspecified) | inconclusive: 89.1 µM [inhibitor, partial curve, poor fit]
Cc1ccc(/C=N/NC(=O)C2(C)CC2(Br)Br)cc1 (stereo unspecified) | inconclusive: 35.5 µM [inhibitor, partial curve, poor fit]
N#C/C(=C\c1cccs1)C(=O)Nc1nccs1 | inconclusive: 17.8 µM [inhibitor, full curve, poor fit]
Cc1cnc(NC(=O)CCNC(=O)c2ccc([N+](=O)[O-])cc2)s1 | inconclusive: 44.7 µM [inhibitor, partial curve, poor fit]
CCOC(=O)c1sc2nc3c(SCC(=O)O)cc(C(=O)c4cc(F)ccc4O)cn3c(=O)c2c1C | inconclusive: 56.2 µM [inhibitor, partial curve, poor fit]
CC(C)c1ccc(/C=C2\SC(=S)N(CCC(=O)N3CCCCC3CCO)C2=O)cc1 (stereo unspecified) | inconclusive: 79.4 µM [inhibitor, single point]
N#Cc1cnn2c(-c3ccccc3)ccnc12 | inactive
O=[N+]([O-])c1cc(C2Nc3cccc4cccc(c34)N2)ccc1Cl | inconclusive: 10 µM [inhibitor, full curve, poor fit]
CCOc1ccc(NC(=S)N2CCCN(Cc3cccc(Cl)c3)C2)cc1 | inactive
O=C(CNC(=O)N1CC(=O)Nc2ccccc21)NCc1ccc(Cl)cc1 | inactive
Cc1ccc(C2NC(=O)CCC2[N+](=O)[O-])cc1 (stereo unspecified) | inconclusive: 56.2 µM [inhibitor, partial curve, poor fit]
Cc1c(CBr)[n+](=O)c2c(n1[O-])C(Br)CCC2Br (stereo unspecified) | inconclusive: 20 µM [inhibitor, full curve, poor fit]
COc1cc(C(=S)N2CCN(C(c3ccccc3)c3ccccc3)CC2)cc(OC)c1O | inconclusive: 44.7 µM [inhibitor, partial curve, poor fit]
Cc1cc(C)cc(OCC(=O)Nc2cccc(-c3nc4ccccc4[nH]3)c2)c1 | inconclusive: 56.2 µM [inhibitor, partial curve, poor fit]
Cc1cc(C)nc(NS(=O)(=O)c2ccc(NS(=O)(=O)c3ccc(C#N)cc3)cc2)n1 | inconclusive: 79.4 µM [inhibitor, single point]
CCOC(=O)c1cc2c(=O)n3ccccc3nc2n(Cc2ccco2)c1=NC(=O)c1ccccc1OC | inconclusive: 44.7 µM [inhibitor, partial curve, poor fit]
Cc1cc(C)c(C(=O)/C=C/c2ccco2)c(=O)[nH]1 | inconclusive: 70.8 µM [inhibitor, partial curve, poor fit]
Cc1nc2nc[nH]n2c(=O)c1NS(=O)(=O)c1ccc([N+](=O)[O-])cc1 | inconclusive: 89.1 µM [inhibitor, single point]
O=C(CSc1ncn(-c2ccccc2)n1)Nc1nccs1 | inconclusive: 100 µM [inhibitor, partial curve, poor fit]

Compound | Potency
CCN(CC(=O)Nc1ccc(NC(C)=O)cc1)C(=O)Cc1coc2cc(C)c(C)cc12 | inactive
CCSc1nc(=S)cc(C)[nH]1 | inconclusive: 28.2 µM [inhibitor, full curve, poor fit]
CCCCOc1ccc(NC(=O)CN2CCN(C(=O)OCC)CC2)cc1 | inconclusive: 79.4 µM [inhibitor, partial curve, poor fit]
Cc1ccc(C)c(NC(=O)CSc2nnc(C)n3c2cc2occc23)c1 | inactive
O=C(CSc1nccn(-c2ccc(Br)cc2)c1=O)Nc1ccccc1F | inconclusive: 17.8 µM [inhibitor, partial curve, poor fit]
CNS(=O)(=O)c1cn(CC(=O)N2CCN(c3ccc(C)cc3C)CC2)cc1S(=O)(=O)NC | inactive
Cc1sc2c3ccsc3ccc2[n+]1C | inconclusive: 17.8 µM [inhibitor, full curve, poor fit]
COc1ccc(Cc2nnc(C(=O)NCCCN3CCN(c4ccccc4F)CC3)o2)cc1OC | inactive
COc1ccc2c(c1)-c1nc(/N=C/c3ccc(O)c(OC)c3)sc1CC2 | inconclusive: 31.6 µM [inhibitor, full curve, poor fit]
O=C(/C=C/Sc1ncn[nH]1)c1ccc(Cl)cc1 | inconclusive: 79.4 µM [inhibitor, partial curve, poor fit]
CCOc1ccc(-c2nc(S(=O)(=O)c3ccccc3)c(N3CCC(C(N)=O)CC3)o2)cc1 | inactive
CCCCC(=O)Nc1ccccc1N1CCN(c2ccc(F)cc2)CC1 | inconclusive: 89.1 µM [inhibitor, single point]
CCCN1CCCc2cc(CN)ccc21 | inconclusive: 39.8 µM [inhibitor, full curve, poor fit]
Cc1nccn1CC(=O)c1ccc(O)c(O)c1 | inconclusive: 70.8 µM [inhibitor, single point]
Cc1ccc(S(=O)(=O)N(C)C)cc1NC(=O)COC(=O)Cc1ccc(Br)cc1 | inconclusive: 56.2 µM [inhibitor, partial curve, poor fit]
O=C(N=Nc1c(O)[nH]c2ccc([N+](=O)[O-])cc12)c1ccccc1Cl | inconclusive: 35.5 µM [inhibitor, full curve, poor fit]
OCC[C@@H]1C[C@@H](O)[C@H](O)[C@]2(CCc3ccccc3CO2)O1 | inconclusive: 89.1 µM [inhibitor, single point]
CCC(C)(C)C(=O)O[C@H]1C[C@@H](C)C=C2C=C[C@H](C)[C@H](CC[C@@H]3C[C@@H](O)CC(=O)O3)[C@H]21 | inconclusive: 50.1 µM [inhibitor, partial curve, poor fit]
COc1ccc(-c2nn3c(-c4cc(-c5ccccc5)n[nH]4)nnc3s2)cc1OC | inactive
COc1ccc(CNC(=O)CCCC(=O)Nc2cccc(Br)c2)cc1 | inconclusive: 89.1 µM [inhibitor, single point]
